PubChem BioAssay AID602310 (National Center for Advancing Translational Sciences (NCATS), 2012)
Among all 410,000 compounds or so, about 310 (0.076%) were called active. Inconclusive means that the source gave no clear call. Such entries were picked first, then a sample of the others. Calls come from the whole dose curve; as a rule, active = well fitted curve in the direction sought with a large enough effect; inconclusive = small, poorly fitted or top-dose-only effect; inactive = flat fitted curve, though single readings scatter. Potencies beside an inconclusive call are fits to weak or partial responses and may not hold up.

target: DNA dC->dU-editing enzyme APOBEC-3G (Homo sapiens) (UniProt Q9HC16); assay: qHTS for Inhibitors of Vif-A3G Interactions: qHTS; details: HeLa A3G-eYFP + Vif (tagged APOBEC3G with the HIV-1 protein that degrades it), YFP fluorescence, overnight; series mostly up to 46.1 µM; activity, negative = active: at the top concentration; note: nearly all actives have a fitted effect of over 60% in size;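 for activity, negative = active: hits raise eYFP signal because A3G escapes Vif-driven loss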
Outline: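 HeLa cells stably expressing Vif and C-terminally eYFP-tagged A3G, seeded overnight at 37 deg C, then exposed to compound by pintool overnight at 37 deg C. Rise in yellow fluorescence (Ex 488/Em 500-530, Acumen) marks blocked Vif-driven A3G degradation.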
% is set by controls: 0 for no effect and ±100 for the full control effect; potency is the fitted concentration of half-maximal effect; tags give direction and shape of the fitted curve.

Chain of UniProt Q9HC16 (Q9HC16 whole entry, looked up): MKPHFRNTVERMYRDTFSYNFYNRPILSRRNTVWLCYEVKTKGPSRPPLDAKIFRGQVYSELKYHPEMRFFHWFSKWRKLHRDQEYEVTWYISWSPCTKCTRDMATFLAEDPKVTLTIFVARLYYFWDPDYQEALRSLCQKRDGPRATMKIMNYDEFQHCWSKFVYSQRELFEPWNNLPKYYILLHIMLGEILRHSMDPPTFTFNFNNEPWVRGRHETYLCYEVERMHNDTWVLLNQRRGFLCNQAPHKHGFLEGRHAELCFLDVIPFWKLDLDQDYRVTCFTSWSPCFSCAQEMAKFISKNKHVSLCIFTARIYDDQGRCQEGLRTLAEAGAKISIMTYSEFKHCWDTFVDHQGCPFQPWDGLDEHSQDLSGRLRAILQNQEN

Row | SMILES | Potency | activity, negative = active
1 | COC(=O)Nc1ccc(S(=O)(=O)N2CCCc3ccccc32)cc1 | inconclusive: 1 µM [inhibitor, full curve] | –
2 | CCN1CCN(CCOc2cccc(Cl)c2Cl)CC1 | – | inactive: 0.348%
3 | CC(C)Oc1ccc(C(=O)CCN2CCOCC2)cc1 | – | inactive: -18.2%
4 | C#CCOCCOCCOCCNc1nc(N2CCOCC2)nc(N2CCN(C(=O)CCCCCCCCCCNC(=O)[C@@H](CCC(=O)O)n3cc(CCCCCN)nn3)CC2)n1 | – | inactive: 0.471%
5 | Cn1cc(C(C[N+](=O)[O-])c2ccccc2)c2ccccc21 (centres undefined) | inconclusive: 3.16 µM [inhibitor, single point] | –
6 | O=C(NS(=O)(=O)Oc1cccc(Cl)c1Cl)OC[C@@H]1CCCN2CCCCC12 (some centres undefined) | – | inactive: -0.279%
7 | CC(=O)N1c2ccccc2C2(O)N=C(C)SC12 (centres undefined) | – | inactive: -8.98%
8 | COc1cccc(C(=O)N/N=C(\C)CC(=O)Nc2ccc(N(C)C)cc2)c1 | – | inactive: -9.71%
9 | CC(=O)NC(=C(Cl)Cl)S(=O)(=O)c1ccccc1 | inconclusive: 17.8 µM [inhibitor, single point] | –
10 | NC(=O)c1cccc(-c2ccnc3c2CC(C(=O)NCc2ccco2)O3)c1 (centres undefined) | inconclusive: 15.8 µM [inhibitor, partial curve, poor fit] | –
11 | Cc1ccc2nc(C)c(C(=O)N/N=C/c3cccs3)n2c1 | inconclusive: 15.8 µM [inhibitor, single point] | –
12 | CCCCC[C@H](O)/C=C/C1C(=O)C=C[C@H]1C/C=C\CCCC(=O)OC (some centres undefined) | inconclusive: 25.1 µM [inhibitor, single point] | –
13 | O=C(NCc1ccccc1)c1ccc2nc(-c3ccco3)c(-c3ccco3)nc2c1 | – | inactive: 4.09%
14 | Cc1ccc(NC(=O)C(C)OC(=O)c2ccc(NC(=O)CC#N)cc2)cc1S(=O)(=O)N1CCOCC1 (centres undefined) | – | inactive: -0.221%
15 | O=C1c2ccccc2C(=O)C1Cc1cccc2ccccc12 | inconclusive: 22.4 µM [inhibitor, single point] | –
16 | COc1cccc(C(C[N+](=O)[O-])c2c(C)[nH]n(-c3ccccc3)c2=O)c1 (centres undefined) | inconclusive: 31.6 µM [inhibitor, single point] | –
17 | CCCN(CCC)c1ccc(/C=C/c2ccnc3ccccc23)cc1 | active: 11.2 µM | –
18 | COc1ccccc1/C=C1\SC(=S)N(CCC(=O)NCCc2ccc(O)cc2)C1=O | – | inactive: -15.1%
19 | CCOc1ccc(NC(=O)NN2C(C)CCCC2C)cc1 (centres undefined) | inconclusive: 35.5 µM [inhibitor, single point] | –
20 | COc1ccc(S(=O)(=O)NCc2ccco2)c2ccccc12 | inconclusive: 3.98 µM [inhibitor, single point] | –
21 | Cc1ccc(S(=O)c2ccc([N+](=O)[O-])c3nonc23)cc1 (centres undefined) | inconclusive: 35.5 µM [inhibitor, single point] | –
22 | COc1ccccc1/C=N/NC(=O)CSc1cc(C)nc2ccccc12 | inconclusive: 2.51 µM [inhibitor, full curve] | –
23 | COc1ccccc1NC(=O)N(Cc1ccco1)Cc1cc2ccc(C)c(C)c2[nH]c1=O | inconclusive: 3.55 µM [inhibitor, partial curve, poor fit] | –
24 | COc1ccc(S(=O)(=O)N2c3ccccc3OCC2C)cc1 (centres undefined) | inconclusive: 35.5 µM [inhibitor, single point] | –
25 | O=C(CN(C1CC1)S(=O)(=O)c1ccc(S(=O)(=O)N2CCCCCC2)cc1)Nc1ccccc1 | – | inactive: -0.516%

Row | SMILES | Potency | activity, negative = active
26 | O=C(CN1C(=O)c2ccccc2S1(=O)=O)c1ccccc1F | – | inactive: 0.594%
27 | Cc1ccc(NC(=S)N/N=C/c2ccc([N+](=O)[O-])s2)cc1 | – | inactive: -3.54%
28 | CC1CCCCN1S(=O)(=O)c1cc2c3c(c1)CC(=O)N3CCC2 (centres undefined) | – | inactive: -2.56%
29 | O=C(NCc1cccnc1)C1Cc2c(-c3ccc(Cl)cc3)ccnc2O1 (centres undefined) | inconclusive: 5.62 µM [inhibitor, full curve] | –
30 | COc1ccccc1-c1c(C)nn2c(N3CCN(c4ccccc4OC)CC3)cc(C)nc12 | – | inactive: -0.895%
31 | O=C(NCc1cccnc1)NC1(C(F)(F)F)Oc2ccc(Cl)cc2O1 (centres undefined) | inconclusive: 20 µM [inhibitor, single point] | –
32 | CC(C)(C)Cc1c(-c2cccc(Cl)c2)nc2ccc(Br)cn12 | inconclusive: 22.4 µM [inhibitor, single point] | –
33 | CC1=Nn2c(nnc2-c2ccccc2Cl)SC1 | – | inactive: -1.48%
34 | CCn1c(CN2CCOCC2)nc2cc(NC(=O)c3ccc([N+](=O)[O-])cc3)ccc21 | – | inactive: 4.44%
35 | COc1ccccc1CNC(=O)CSc1ncc2c(n1)-c1cc(Cl)ccc1N(Cc1ccccc1)S2(=O)=O | – | inactive: 1.88%
36 | Cc1cc(NC(=O)COC(=O)c2ccc(S(=O)(=O)N3CCCc4ccccc43)cc2)no1 | inconclusive: 2.51 µM [inhibitor, full curve] | –
37 | COc1cccc(C(N)c2nc(-c3csc4ccccc34)cs2)c1 (centres undefined) | inconclusive: 4.47 µM [inhibitor, full curve] | –
38 | C#CCOc1ccc(C2C(C#N)=C(N)Oc3cc(O)ccc32)cc1 (centres undefined) | – | inactive: -15.4%
39 | OCC#Cc1ncc(C(F)(F)F)cc1Cl | inconclusive: 35.5 µM [inhibitor, single point] | –
40 | c1cncc(-c2nc3c(ccc4ccccc43)[nH]2)c1 | inconclusive: 15.8 µM [inhibitor, single point] | –
41 | CCOC(=O)/C(=N/Nc1ccccc1)c1csc(Nc2ccccc2)n1 | – | inactive: -0.297%
42 | CCc1ccccc1NC(=O)C1COc2ccccc2C1 (centres undefined) | – | inactive: 1.43%
43 | COc1ccc(OC)c(Nc2cc(C)nc3ccccc23)c1 | inconclusive: 31.6 µM [inhibitor, single point] | –
44 | Cn1ncc2c(Nc3cccc(Cl)c3)nc(Nc3cccc(Cl)c3)nc21 | – | inactive: -6.15%
45 | CC(=O)NC(=S)NNC(=O)COc1ccc([N+](=O)[O-])cc1 | – | inactive: -5.04%
46 | CCN(CCCn1c(=S)[nH]c2ccc(N3CCOCC3)cc2c1=O)c1ccccc1 | inconclusive: 35.5 µM [inhibitor, single point] | –
47 | CCCCCCCCCCCCCCCC(O)C[N+](C)(C)CCO (centres undefined) | – | inactive: -22.5%
48 | CCc1ccccc1NC(=O)Cn1nnc(C(=O)NCc2cccs2)c1N | inconclusive: 6.31 µM [inhibitor, partial curve, poor fit] | –
49 | Cc1ccsc1-c1nc(CSCC(=O)N2CCN(c3ccccc3)CC2)c(C)o1 | – | inactive: 1.35%
